# From the supplement of paper PMC3334620
# The full ranking holds about 33,000 sequences; the median of “E-score (-0.5 to 0.5)” is about -0.054, and the highest 2% start at about 0.35. The list shows a part of the results.
# Molecular target: T1, Stb5 (UniProt P38699)
# T1 sequence: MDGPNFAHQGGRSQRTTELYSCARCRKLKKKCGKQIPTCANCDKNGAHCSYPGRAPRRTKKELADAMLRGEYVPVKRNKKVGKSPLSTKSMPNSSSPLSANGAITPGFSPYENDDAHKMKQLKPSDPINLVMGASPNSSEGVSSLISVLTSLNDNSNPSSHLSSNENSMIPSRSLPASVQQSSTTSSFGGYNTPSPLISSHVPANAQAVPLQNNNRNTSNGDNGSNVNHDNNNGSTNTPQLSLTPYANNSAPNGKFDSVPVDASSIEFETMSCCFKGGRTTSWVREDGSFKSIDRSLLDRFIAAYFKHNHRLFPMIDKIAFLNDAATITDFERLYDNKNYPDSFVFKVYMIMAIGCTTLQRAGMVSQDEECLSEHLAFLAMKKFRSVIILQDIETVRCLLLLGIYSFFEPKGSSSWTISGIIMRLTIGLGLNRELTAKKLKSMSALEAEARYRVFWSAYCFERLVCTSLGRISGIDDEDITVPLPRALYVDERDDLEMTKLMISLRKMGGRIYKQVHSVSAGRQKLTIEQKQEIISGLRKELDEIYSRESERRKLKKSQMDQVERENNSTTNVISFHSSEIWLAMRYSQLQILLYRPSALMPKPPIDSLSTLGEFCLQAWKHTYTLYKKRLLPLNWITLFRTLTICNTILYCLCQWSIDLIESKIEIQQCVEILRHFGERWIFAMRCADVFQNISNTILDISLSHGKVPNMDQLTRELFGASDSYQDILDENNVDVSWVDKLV
# Test: PBM E-score (8-mer binding enrichment) (E-score (-0.5 to 0.5)); higher = stronger / more preferred TF binding; most listed sequences are background and not binding sites
# Conditions: protein concentration: 200 nM; construct: GST-full length
# Method in brief: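 GST-tagged yeast TFs (full-length or DNA-binding domain) were made by PURExpress in vitro transcription/translation and applied at about 100-200 nM to universal all-10-mer Agilent arrays. The arrays were made double-stranded by primer extension, on fresh or once-stripped slides. Bound protein was detected with fluorescent anti-GST, and scans were normalised with masliner. Each ungapped eight-base word, pooled with its reverse complement, received an E-score (modified Wilcoxon-Mann-Whitney statistic) from the Universal PBM Analysis Suite.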
row,Sequence,PBM E-score
1,AAAGTACG,0.00248
2,GTCATACA,-0.102
3,ACACATTA,-0.179
4,ACGCATAA,0.045
5,GGCCCTCA,-0.0732
6,AGCCCTGG,-0.164
7,GCCACTAC,-0.00756
8,AGTCGGAG,0.302
9,GGCACGTA,-0.0354
10,GCAACGGC,0.218
11,CTTTCGAC,-0.148
12,ATACGGGG,0.232
13,ATCAGAAC,-0.0619
14,AAACTGGC,-0.109
15,AGCTGGCA,-0.361
16,AGGGGGTA,-0.124
17,CCTTGCGA,-0.136

row,Sequence,PBM E-score
1,AGGCGTGG,-0.271
2,AACCAGTC,-0.048
3,CCAAGCAG,-0.122
4,AACTAGCG,0.132
5,AATCTGTG,-0.207
6,AGACGGCG,0.163
7,CTCATGAC,0.0141
8,AGTATCAT,-0.00028
9,AGTCTTTA,-0.186
10,ACGCACAT,0.00313
11,ATAGATAG,-0.12
12,TACGGGCA,0.143
13,CTCGCGAC,-0.0342
14,CCAAGACA,-0.283
15,CTTGACTA,-0.193
16,AGCTGGAA,-0.172
